Laboratory results from the supplement of paper PMC7826260.
The other results are listed elsewhere or left out. Each Rep nickase domain was tested in vitro on the same pool of single strands (1 h at 37 °C, 3 µM enzyme); the outer parts of the 90-letter strands are left off. Values are log2 of uncut reads against the no-enzyme pool; more negative means more cut, near 0 not cut, and no call is made. The scaling is to total reads; uncut strands gain when others are lost, and binding without cutting may add a little.

Key:
Assay in all cases: uncleaved DNA left, log2 of reads against the no-enzyme library (log2 ratio); higher = less cleavage (more negative = more Rep cleavage of the k-mer); sequences stand for … in CTCGTCCG…ACCGGAGA
[1] = tested on: T1, Rep nickase domain of Muscovy duck circovirus
T1 sequence (residues 1-111 of Rep, tag left off): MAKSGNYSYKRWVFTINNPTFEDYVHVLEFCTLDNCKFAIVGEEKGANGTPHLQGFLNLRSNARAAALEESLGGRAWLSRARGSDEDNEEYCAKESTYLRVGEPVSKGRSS
Method: (§1)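 A pool of 90-nt single-stranded DNAs with seven random bases just before the constant AC of the nick site (name = the seven bases) was cut by 3 µM recombinant His6-SUMO-tagged Rep nickase domain (300 nM DNA, 50 mM HEPES pH 8.0, 50 mM NaCl, 1 mM MnCl2, 1 h, 37 °C, three replicates). Uncut DNA was amplified and sequenced.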

[2] = tested on: T2, Rep nickase domain of banana bunchy top virus
T2 sequence (residues 1-94 of Rep, tag left off): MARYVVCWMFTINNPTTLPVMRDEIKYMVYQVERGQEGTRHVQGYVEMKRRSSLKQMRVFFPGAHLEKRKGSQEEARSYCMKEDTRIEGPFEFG
Method: as §1

[3] = tested on: T3, Rep nickase domain of cabbage leaf curl virus
T3 sequence (residues 1-116 of Rep, tag left off): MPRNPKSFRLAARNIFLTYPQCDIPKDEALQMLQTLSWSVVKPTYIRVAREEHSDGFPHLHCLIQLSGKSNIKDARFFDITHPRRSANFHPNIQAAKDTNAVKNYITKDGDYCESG
Method: as §1

[4] = tested on: T4, Rep nickase domain of chickpea chlorotic dwarf virus
T4 sequence (residues 1-124 of Rep, tag left off): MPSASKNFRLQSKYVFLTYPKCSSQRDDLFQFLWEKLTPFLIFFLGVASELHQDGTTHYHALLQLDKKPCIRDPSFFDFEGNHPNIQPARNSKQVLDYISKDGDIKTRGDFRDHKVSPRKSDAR
Method: as §1

[5] = tested on: T5, Rep nickase domain of faba bean necrotic yellows virus
T5 sequence (residues 1-98 of Rep, tag left off): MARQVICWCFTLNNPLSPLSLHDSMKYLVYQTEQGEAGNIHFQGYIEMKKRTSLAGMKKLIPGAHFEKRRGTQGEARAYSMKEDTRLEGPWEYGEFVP
Method: as §1

[6] = tested on: T6, Rep nickase domain of maize striate mosaic virus
T6 sequence (residues 1-117 of Rep, tag left off): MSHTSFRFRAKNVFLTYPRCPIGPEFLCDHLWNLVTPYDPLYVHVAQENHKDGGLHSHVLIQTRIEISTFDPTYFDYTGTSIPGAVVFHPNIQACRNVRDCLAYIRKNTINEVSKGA
Method: as §1

[7] = tested on: T7, Rep nickase domain of porcine circovirus 2
T7 sequence (residues 2-116 of Rep, tag left off): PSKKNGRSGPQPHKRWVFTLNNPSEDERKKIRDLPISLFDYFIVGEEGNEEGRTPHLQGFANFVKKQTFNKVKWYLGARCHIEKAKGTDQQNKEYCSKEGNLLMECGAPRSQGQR
Method: as §1

[8] = tested on: T8, Rep nickase domain of tomato golden mosaic virus
T8 sequence (residues 1-124 of Rep, tag left off): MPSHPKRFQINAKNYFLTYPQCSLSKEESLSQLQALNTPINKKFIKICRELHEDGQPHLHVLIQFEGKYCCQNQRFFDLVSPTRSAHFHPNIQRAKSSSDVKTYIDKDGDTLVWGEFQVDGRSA
Method: as §1

[9] = tested on: T9, Rep nickase domain of tomato yellow leaf curl virus
T9 sequence (residues 1-136 of Rep, tag left off): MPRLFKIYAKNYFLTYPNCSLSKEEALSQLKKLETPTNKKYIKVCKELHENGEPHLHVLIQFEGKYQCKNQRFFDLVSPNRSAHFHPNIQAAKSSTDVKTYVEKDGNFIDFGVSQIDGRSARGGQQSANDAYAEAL
Method: as §1

[10] = tested on: T10, Rep nickase domain of wheat dwarf virus
T10 sequence (residues 1-137 of Rep, tag left off): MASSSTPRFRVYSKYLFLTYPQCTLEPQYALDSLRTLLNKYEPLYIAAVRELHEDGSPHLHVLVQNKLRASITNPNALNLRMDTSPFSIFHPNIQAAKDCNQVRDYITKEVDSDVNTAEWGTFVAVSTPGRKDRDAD
Method: as §1

Row | Sequence | uncleaved DNA left (log2) [1] | uncleaved DNA left (log2) [2] | uncleaved DNA left (log2) [3] | uncleaved DNA left (log2) [4] | uncleaved DNA left (log2) [5] | uncleaved DNA left (log2) [6] | uncleaved DNA left (log2) [7] | uncleaved DNA left (log2) [8] | uncleaved DNA left (log2) [9] | uncleaved DNA left (log2) [10]
1 | TACACAT | 0.0835 | -0.0182 | -0.517 | -2.32 | -0.0506 | -0.312 | -0.37 | -0.011 | -0.0272 | 0.0667
2 | GGGGGTC | 0.0117 | 0.027 | 0.708 | 1.65 | 0.0183 | 2.11 | 0.117 | -0.0725 | 0.0217 | 0.112
3 | CGGCGGC | 0.128 | 0.151 | 0.087 | 0.318 | 0.121 | 0.358 | 0.138 | 0.0519 | 0.0492 | -0.0277
4 | ACAGGTG | -0.059 | -0.0581 | -0.705 | -0.179 | 0.00976 | -1 | 0.15 | 0.0235 | 0.0878 | -0.0636
5 | CAGGGCG | 0.176 | 0.0763 | -0.683 | 0.198 | 0.137 | -0.451 | 0.296 | 0.0907 | 0.175 | -0.0692
6 | GCCGGAT | 0.111 | -0.111 | 0.202 | 1.45 | 0.0814 | 1.75 | 0.223 | 0.161 | -0.206 | 0.074
7 | GATGAAG | -0.0134 | 0.0414 | -0.618 | -0.383 | 0.188 | -0.641 | 0.151 | 0.125 | 0.0503 | 0.041
8 | CCGGTTC | 0.0215 | 0.00539 | 0.327 | 0.226 | 0.0451 | 1.4 | 0.0353 | 0.15 | -0.0513 | -0.0357
9 | TTATTGT | -0.855 | -0.0518 | -1.37 | -1.54 | 0.0938 | -1.36 | -0.685 | -0.244 | 0.0469 | -0.245
10 | ACACAAA | 0.0767 | 0.123 | -0.0489 | -0.0839 | 0.241 | -0.678 | 0.266 | 0.151 | -0.0304 | 0.0907
11 | CCGATAT | -0.0132 | -0.179 | -0.0706 | -0.364 | -0.126 | -0.138 | -0.0528 | -0.166 | -0.235 | -0.115
12 | CCTTGCG | -0.0147 | -0.0376 | -0.261 | 1.27 | 0.0484 | 0.834 | 0.0872 | -0.121 | -0.289 | -0.0683
13 | TGGCTCC | 0.153 | 0.126 | 0.305 | 0.63 | -0.0394 | 1.19 | 0.0219 | -0.0246 | 0.11 | 0.0256
14 | ACCTACA | -0.046 | 0.0344 | -0.379 | -2.53 | 0.0216 | -0.804 | -0.16 | 0.14 | 0.0371 | -0.0181
15 | GACGCTA | -0.119 | -0.0818 | 0.0614 | -0.357 | -0.105 | 0.316 | 0.0411 | -0.045 | -0.0546 | -0.0793
16 | AAGTTGT | -0.131 | -0.159 | 0.148 | 0.139 | -0.0345 | 0.616 | -3.8 | 0.0808 | -0.0943 | -0.0921
17 | GTTTAGC | -0.0257 | 0.0804 | 0.132 | 0.669 | -0.0255 | 0.662 | 0.068 | 0.0156 | 0.0405 | 0.00572
18 | ATCCAGA | 0.032 | -0.06 | -0.0603 | -0.141 | -0.0537 | -0.905 | 0.133 | 0.0501 | -0.0301 | -0.0551
19 | CTTGGGT | 0.0695 | 0.0303 | -0.117 | 0.264 | -0.00354 | -0.123 | 0.178 | 0.0032 | 0.00122 | -0.0237
20 | TGTGGAC | 0.0722 | 0.0823 | 0.854 | 1.9 | -0.0549 | 2.22 | 0.2 | 0.131 | 0.11 | 0.166
21 | ACAGTCC | 0.0416 | -0.0304 | -0.166 | -0.132 | 0.0391 | -0.465 | 0.0377 | -0.0604 | -0.234 | -0.0229
22 | ATGTAGA | -0.0029 | 0.00349 | -0.306 | -0.456 | -0.0295 | -1.05 | 0.0208 | -0.0857 | -0.0349 | -0.0637
23 | GAGCTGT | -0.116 | -0.122 | 0.115 | 1.24 | -0.207 | 1.43 | -0.384 | 0.00983 | -0.173 | -0.132
24 | CGGAACT | 0.128 | 0.0872 | 0.385 | -0.154 | -0.12 | 1.32 | -0.159 | -0.0254 | 0.0029 | 0.0928
25 | TCAGATG | 0.0213 | 0.0807 | 0.188 | 0.831 | 0.0447 | 0.895 | 0.128 | 0.15 | -0.0138 | 0.0207
26 | AGATAAA | 0.0434 | 0.014 | 0.0652 | 0.373 | 0.19 | -0.168 | 0.0567 | 0.074 | -0.0614 | 0.0785
27 | TGACCTG | 0.0492 | -0.047 | 0.00966 | 0.509 | -0.207 | 1.28 | 0.131 | -0.0887 | 0.00759 | 4.7e-05
28 | GGCTTAA | 0.138 | 0.146 | 0.443 | 0.931 | 0.107 | 1.59 | 0.0137 | 0.123 | 0.0977 | 0.0422
29 | CGCTGCT | -0.455 | -0.213 | -0.394 | -0.723 | -0.224 | -0.845 | -1.45 | -0.179 | -0.118 | -0.226
30 | TACCATC | 0.105 | -0.0495 | -0.211 | -1.38 | 0.025 | -0.88 | -0.577 | -0.0551 | -0.0116 | 0.036
